Reference: PubChem BioAssay (Tox21)
Several values for one entry are separate records, joined by “and”; a condition that tells them apart may be missing. Equal entries are not always repeated. Inconclusive means that the source gave no clear call. Such entries were picked first, then a sample of the others. For some assays here: Where the call is inconclusive, the potency comes from a doubtful curve fit. The source holds several records for some structures; these can differ, active in one and inactive in another. Activity calls are given as the source filed them. Unless noted, the call rests on the fitted dose curve; in most records, active means well fitted curve in the direction sought with a large enough effect in the repeat runs; inconclusive means weak or mixed curves; inactive means no such curve, though single readings can be large; an effect the other way counts as inactive or inconclusive.

Tests used:
[1] = qHTS assay to identify small molecule antagonists of the estrogen receptor alpha (ER-alpha) signaling pathway using the BG1 cell line in the presence of 0.1 nM 17-beta-estradiol - cell viability counter screen (AID 1259241); further: nearly all actives have a fitted effect of over 40% in size; further: potency means the concentration at half of the fitted maximal effect
In short: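 VM7Luc4E2 cells (endogenous ER-alpha, 4×ERE-luciferase), hormone-starved 5 days in charcoal-stripped FBS, were treated with compounds plus 0.1 nM 17beta-estradiol for 22 hr at 37C; viability read in same wells as CellTiter-Fluor live-cell protease fluorescence.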

[2] = qHTS assay to identify small molecule antagonists of the androgen receptor (AR) signaling pathway using the MDA cell line in the presence of 0.5 nM R1881 - cell viability counter screen (AID 1259242); further: potency means the concentration at half of the fitted maximal effect; nearly all actives have a fitted effect of over 45% in size
In short: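 Cells seeded at 3,000/well and allowed 5 hr at 37C, 0% CO2 before compound transfer and R1881 (0.5 nM final) addition; 16 hr later, live-cell protease fluorescence indicated cytotoxicity.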

[3] = qHTS assay to identify small molecule agonists of the sonic hedgehog signaling (Shh) pathway - cell viability counter screen (AID 1259366); further: potency means the concentration at half of the fitted maximal effect; nearly all actives have a fitted effect of over 50% in size
In short: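 NIH/3T3-derived 3T3 Gli1-Luc cells (stable Gli1-responsive firefly luciferase reporter) were seeded, rested 4 hr at 37 C/5% CO2, then exposed to compounds in DMSO for 24 hr; viability was read by CellTiter-Fluor fluorescence in the same wells.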

[4] = qHTS assay to identify small molecule antagonists of the estrogen receptor beta (ER-beta) signaling pathway - cell viability counter screen (AID 1259382); further: potency means the concentration at half of the fitted maximal effect; nearly all actives have a fitted effect of over 55% in size
In short: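 CellTiter-Glo ATP luminescence measured after the LiveBLAzer read in the same wells; ER-beta-UAS-bla HEK293T cells, 16 hr compound treatment with 1nM 17-beta-estradiol agonist at 37C, 5% CO2.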

[5] = qHTS assay to identify small molecule phospholipidosis (PLD) inducers (AID 1259344; active means well fitted curve in the direction sought with a large enough effect; inconclusive means small, poorly fitted or top-dose-only effect, or another doubt; inactive means no such curve, though single readings can be large; an effect the other way counts as inactive or inconclusive; further: potency means the concentration at half of the fitted maximal effect)
In short: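 Image-based: LipidTOX Red pit count/intensity per well and per cell; HepG2, 24 h compound at 37 C, PFA fixation, Hoechst counterstain.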

[6] = qHTS assay to identify small molecule antagonists of the sonic hedgehog signaling (Shh) pathway - cell viability counter screen (AID 1259367); further: potency means the concentration at half of the fitted maximal effect; nearly all actives have a fitted effect of over 55% in size
In short: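 Tox21 library chemicals were tested on a Gli1-Luc NIH/3T3 clone (2,000 cells/well) stimulated by conditioned medium; viability was quantified as fluorescence from CellTiter-Fluor reagent added at 23 hr.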

[7] = target: Estrogen receptor beta (Homo sapiens) (UniProt Q92731); experiment: qHTS assay to identify small molecule antagonists of the estrogen receptor beta (ER-beta) signaling pathway (AID 1259378; active means well fitted inhibition curve with a large enough effect in the signal ratio in the repeat runs, not every such curve was filed as active; inconclusive means weak or mixed curves, or effect the other way; inactive means no such curve, though single readings can be large or run the other way; the % refers to the signal ratio; further: potency means the concentration at half of the fitted maximal effect; on activity, negative = inhibition: on the % scale 0 is the no-effect control and ±100 the full control effect); conditions: ER-beta-UAS-bla HEK293T, beta-lactamase FRET ratio, 16 h; activity, negative = inhibition: at 92.4 µM (top of the series) unless noted
In short: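 ER-beta-UAS-bla HEK293T cells in 2% charcoal-stripped FBS medium treated with compound plus 1nM final 17-beta-estradiol for 16 hr at 37C. Beta-lactamase reporter read by FRET substrate fluorescence after 2 hours at room temperature.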

[8] = target: Estrogen receptor beta (Homo sapiens) (UniProt Q92731); experiment: qHTS assay to identify small molecule agonists of the estrogen receptor beta (ER-beta) signaling pathway (AID 1259377; active means well fitted activation curve with a large enough effect in the signal ratio in the repeat runs, not every such curve was filed as active; inconclusive means weak or mixed curves, or effect the other way; the % refers to the signal ratio; further: potency means the concentration at half of the fitted maximal effect); conditions: ER-beta-UAS-bla HEK293T, beta-lactamase FRET ratio, 16 h; activation: at 92.4 µM (top of the series) unless noted
In short: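 ER-beta-UAS-bla HEK293T (GripTite) cells carrying a UAS-driven beta-lactamase reporter, in medium with 2% charcoal-stripped FBS, were exposed to compounds for 16 hr at 37C; LiveBLAzer B/G FRET substrate was then added and fluorescence read after 2 hours at room temperature.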

[9] = qHTS assay to identify small molecule agonists of the androgen receptor (AR) signaling pathway in the presence of an antagonist - cell viability counter screen (AID 1259379); further: potency means the concentration at half of the fitted maximal effect; nearly all actives have a fitted effect of over 25% in size
In short: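 Each compound was tested at 15 concentrations on MDA-kb2 cells in the presence of 3.0uM nilutamide. Viability was measured by CellTiter-Fluor fluorescence after a 16 hr incubation at 37C in a CO2-free atmosphere.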

[10] = qHTS assay to identify small molecule agonists of the estrogen receptor beta (ER-beta) signaling pathway - cell viability counter screen (AID 1259380); further: potency means the concentration at half of the fitted maximal effect; nearly all actives have a fitted effect of over 30% in size
In short: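 Compounds dissolved in DMSO were pin-transferred onto ER-beta-UAS-bla HEK293T cells that had settled 6 hr, and exposure ran 16 hr at 37C. Following the reporter read, CellTiter-Glo luminescence after 30 min at room temperature indicated cytotoxicity.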

[11] = qHTS assay to identify small molecule antagonists of the sonic hedgehog signaling (Shh) pathway (AID 1259369; calls by dose curve; further: potency means the concentration at half of the fitted maximal effect; nearly all actives have a fitted effect of over 45% in size)
In short: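 Read-out is luminescence from a firefly luciferase gene controlled by the Gli1 response element, in 3T3Gli1-Luc cells pre-incubated 4hr then exposed to compounds and conditioned medium for 24hr.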

[12] = target: Estrogen receptor (Homo sapiens) (UniProt P03372); experiment: qHTS assay to identify small molecule antagonists of the estrogen receptor alpha (ER-alpha) signaling pathway using the BG1 cell line in the presence of 0.1 nM 17-beta-estradiol (AID 1259244); further: potency means the concentration at half of the fitted maximal effect; nearly all actives have a fitted effect of over 50% in size
In short: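 Luciferase signal from VM7Luc4E2 ERE-reporter cells, co-dosed with test compound and 0.1 nM final 17beta-estradiol for 22 h, read with ONE-Glo.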

[13] = qHTS assay to identify small molecule HDAC inhibitors - cell viability counter screen (AID 1259365); further: potency means the concentration at half of the fitted maximal effect; nearly all actives have a fitted effect of over 50% in size
In short: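 Wild-type HCT-116 cells were seeded at 1,500 per well, incubated overnight at 37 C, then exposed to compounds in DMSO for 2hr. Viability was read by CellTiter-Glo luminescence after 30min at room temperature.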

[14] = qHTS assay to identify small molecule agonists or antagonists of the thyroid stimulating hormone receptor (TSHR) signaling pathway - wild type cell line counter screen (AID 1259384; calls by dose curve; further: on the % scale 0 is the no-effect control and ±100 the full control effect); conditions: HEK293 wild type, cAMP HTRF counter-screen; cAMP activity change: at 92.4 µM (top of the series), stronger effect = higher value unless noted
In short: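 Wild-type Hek293 cells, 800/well, 18 h at 37C, then compound with Ro20-1724 for 30 min RT. cAMP by HTRF (cAMP-d2/anti-cAMP cryptate), 1 h RT, fluorescence read. 15 concentrations, triplicates.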

[15] = qHTS assay to identify small molecule HDAC inhibitors (AID 1259364);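 further: wild-type HCT-116 cells with endogenous class I/II HDAC activity; potency means the concentration at half of the fitted maximal effect; nearly all actives have a fitted effect of over 45% in size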
In short: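 HCT-116 wt cells, 1,500/well, overnight attach. Compounds (DMSO) 2 h, 37 °C. HDAC-Glo I/II, 30 min RT. Luminescence.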

[16] = qHTS assay to identify small molecule agonists of the sonic hedgehog signaling (Shh) pathway (AID 1259368; calls by dose curve; further: potency means the concentration at half of the fitted maximal effect; nearly all actives have a fitted effect of over 15% in size)
In short: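 Following a 24 hr incubation with DMSO-dissolved compounds at 37 C, 5% CO2, Gli1-Luc NIH/3T3-derived cells received luciferase reagent for 30 min at room temperature prior to luminescence measurement.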
Tags describe the fitted curve by direction and shape or compound fluorescence and quenching.

Chain of UniProt Q92731 (Q92731 whole entry, looked up): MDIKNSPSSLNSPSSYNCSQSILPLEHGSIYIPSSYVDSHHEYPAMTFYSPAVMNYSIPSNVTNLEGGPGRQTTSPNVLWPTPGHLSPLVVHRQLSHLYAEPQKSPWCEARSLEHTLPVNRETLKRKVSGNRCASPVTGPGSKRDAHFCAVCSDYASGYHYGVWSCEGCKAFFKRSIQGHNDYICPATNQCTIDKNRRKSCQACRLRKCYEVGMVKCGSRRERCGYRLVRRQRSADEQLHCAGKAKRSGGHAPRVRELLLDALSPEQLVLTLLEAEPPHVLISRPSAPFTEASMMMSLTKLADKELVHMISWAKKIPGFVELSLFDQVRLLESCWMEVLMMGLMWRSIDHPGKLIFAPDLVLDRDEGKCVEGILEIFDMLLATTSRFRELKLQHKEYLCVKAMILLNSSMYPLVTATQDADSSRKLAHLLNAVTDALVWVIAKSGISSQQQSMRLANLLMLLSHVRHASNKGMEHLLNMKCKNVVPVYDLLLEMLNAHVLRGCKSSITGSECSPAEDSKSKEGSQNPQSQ
Chain of UniProt P03372 (P03372 whole entry, looked up): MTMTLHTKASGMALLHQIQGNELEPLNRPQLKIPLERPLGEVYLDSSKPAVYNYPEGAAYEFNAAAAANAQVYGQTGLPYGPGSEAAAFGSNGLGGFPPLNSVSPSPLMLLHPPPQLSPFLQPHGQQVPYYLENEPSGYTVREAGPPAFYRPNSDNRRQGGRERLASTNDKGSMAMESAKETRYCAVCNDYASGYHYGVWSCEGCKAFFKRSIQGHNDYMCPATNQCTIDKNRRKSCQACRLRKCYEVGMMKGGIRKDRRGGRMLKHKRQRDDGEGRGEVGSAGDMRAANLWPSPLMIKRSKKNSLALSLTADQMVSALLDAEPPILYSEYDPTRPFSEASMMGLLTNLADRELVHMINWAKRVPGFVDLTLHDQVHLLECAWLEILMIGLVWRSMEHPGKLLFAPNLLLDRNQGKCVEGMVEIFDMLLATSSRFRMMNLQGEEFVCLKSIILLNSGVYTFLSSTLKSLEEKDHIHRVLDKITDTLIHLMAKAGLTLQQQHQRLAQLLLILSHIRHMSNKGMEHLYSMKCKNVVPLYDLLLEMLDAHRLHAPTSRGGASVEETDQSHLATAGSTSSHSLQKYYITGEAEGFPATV

CCCCCCCCCCCC[N+](C)(C)C
Potency [1]: inconclusive: 54.5 µM [cytotoxic, partial curve] | Potency [2]: inconclusive: 15.4 µM [cytotoxic, full curve] | Potency [3]: active: 43.1 µM and active: 61.1 µM and active: 54.5 µM | Potency [4]: inconclusive: 68.4 µM [cytotoxic, single point] and inconclusive: 77 µM [cytotoxic, single point]

O=C(CCCN1CCC(O)(c2ccc(Cl)cc2)CC1)c1ccc(F)cc1
Potency [1]: inconclusive: 68.6 µM [cytotoxic, partial curve] | Potency [2]: inconclusive: 68.6 µM [cytotoxic, single point] | Potency [5]: inconclusive: 7.94 µM [activator, partial curve] | Potency [3]: active: 68.6 µM | Potency [6]: inconclusive: 68.6 µM [cytotoxic, single point] | activity, negative = inhibition [7]: inconclusive: -53.9% | Potency [4]: inconclusive: 38.6 µM [cytotoxic, partial curve] and inconclusive: 33.5 µM [cytotoxic, single point]

CCN(CC)CCNc1ccc(CO)c2sc3ccccc3c(=O)c12
Potency [1]: inconclusive: 5.31 µM [cytotoxic, full curve] | Potency [2]: inconclusive: 29.8 µM [cytotoxic, partial curve] | Potency [3]: inconclusive: 29.8 µM [cytotoxic, single point] | Potency [6]: inconclusive: 23.7 µM [cytotoxic, partial curve, poor fit] | Potency [8]: inconclusive: 33.5 µM [rising, single point] | Potency [7]: inconclusive: 21.1 µM [partial curve] | Potency [9]: inconclusive: 13.3 µM [cytotoxic, partial curve] | Potency [10]: active: 10.6 µM | Potency [4]: active: 11.9 µM

Oc1ccc(Cl)cc1Sc1cc(Cl)ccc1O
Potency [1]: inconclusive: 33.5 µM [cytotoxic, single point] | Potency [2]: inconclusive: 54.4 µM [cytotoxic, partial curve] and active: 29.8 µM | Potency [3]: active: 30.6 µM | Potency [11]: inconclusive: 15.3 µM [inhibitor, full curve] | Potency [9]: active: 21.6 µM and active: 26.6 µM

O=C(O)CNC(=O)c1ccc(CO)o1
Potency [1]: inactive | Potency [12]: inconclusive: 53.9 µM [inhibitor, single point]

O=C(N/N=C/c1ccc([N+](=O)[O-])o1)c1ccc(O)cc1
Potency [1]: active: 26.6 µM | Potency [2]: inconclusive: 11.9 µM [cytotoxic, partial curve] | Potency [8]: inconclusive: 21.1 µM [rising, partial curve] | Potency [7]: inconclusive: 18.8 µM [rising, partial curve] | Potency [10]: inconclusive: 13.3 µM [cytotoxic, single point]

Cc1ccc(O)c(O)c1
Potency [1]: inconclusive: 21.1 µM [cytotoxic, full curve, poor fit] | Potency [12]: inconclusive: 14.9 µM [inhibitor, full curve] | Potency [13]: inconclusive: 66.6 µM [rising, single point] | Potency [6]: active: 21.1 µM | Potency [7]: inconclusive: 23.6 µM [rising, full curve, poor fit] | cAMP activity change [14]: inconclusive: -8.36%

c1cnc2c(c1)ccc1cccnc12
Potency [1]: inconclusive: 10.9 µM [cytotoxic, full curve] | Potency [2]: inconclusive: 19.5 µM [cytotoxic, partial curve] and inconclusive: 27.3 µM [cytotoxic, partial curve] | Potency [15]: active: 19.5 µM and active: 24.3 µM and active: 27.3 µM | Potency [3]: active: 24.6 µM and inconclusive: 68.6 µM [cytotoxic] and inconclusive: 68.6 µM [cytotoxic, single point] | Potency [6]: active: 13.8 µM and active: 68.6 µM and active: 43.3 µM | Potency [16]: active: 3.09 µM and active: 24.3 µM and active: 21.7 µM | Potency [11]: inconclusive: 38.6 µM [inhibitor, partial curve, poor fit] | Potency [10]: inconclusive: 2.46 µM [cytotoxic, partial curve, poor fit] | Potency [4]: inconclusive: 1.1 µM [cytotoxic, full curve] and inconclusive: 2.17 µM [cytotoxic, full curve] and inconclusive: 1.93 µM [cytotoxic, full curve]

CC(=O)OC(OC(C)=O)c1ccc([N+](=O)[O-])o1
Potency [1]: active: 55.4 µM | Potency [2]: inconclusive: 69.8 µM [cytotoxic] | Potency [13]: inconclusive: 69.8 µM [cytotoxic, single point] | Potency [6]: active: 24.8 µM | Potency [16]: inconclusive: 15.6 µM [activator, single point] | Potency [8]: inconclusive: 69.8 µM | Potency [7]: inconclusive: 69.8 µM [single point] | Potency [10]: active: 62.2 µM | Potency [4]: inconclusive: 69.8 µM [cytotoxic, single point]
